From PubChem BioAssay AID938 (National Center for Advancing Translational Sciences (NCATS), 2007)
Screen size: about 73,000 compounds; about 1,800 (2.5%) were called active. Inconclusive results (about 13%) are left out. Calls follow the shape of the dose curve; as a rule, active = well fitted activation curve with a large enough effect; inconclusive = small, poorly fitted or top-dose-only effect; inactive = no such curve, though single readings can be large or run the other way. The list shows a part of the results, in another mix than the full data.

experiment: qHTS Assay for Agonists of the Thyroid Stimulating Hormone Receptor: Activators of Intracellular cAMP Concentrations in Parental HEK 293; settings: parental HEK293 CNG cAMP sensor, membrane potential fluorescence; series mostly up to 57.1 µM; activation: at the top concentration; also: nearly all actives have a fitted effect of over 55% in size; as to activation: % of control where 0% means no effect
Summary of the method: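 Parental HEK 293 cells stably expressing a modified CNG channel (no TSHR) report cAMP rise as membrane depolarization. Membrane potential dye with 100 uM RO 20-1724 was loaded for 60 min at room temperature, then compound added for 30 min; fluorescence read at 590 nm.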
Potency is read from the fitted curve at half-maximal effect.

Row | SMILES | activation | Potency
1 | CCN(CC)CCOC(=O)C1(c2ccc([N+](=O)[O-])cc2)CCCC1 | inactive: 5.24% [at 25.6 µM] | 
2 | CN(C)CCCN1c2ccccc2CCc2ccc(Cl)cc21 |  | inactive
3 | C[C@@H]1CC2(OC(O)[C@]3(C)O[C@H]23)O[C@H]2C[C@@]3(C)[C@@H]4CC[C@H]5C(C)(C)C(O[C@@H]6OC[C@@H](O)[C@H](O)[C@H]6O)CC[C@@]56C[C@@]46CC[C@]3(C)[C@@H]12 (some centres undefined) | inactive: -34.9% | 
4 | Cc1sc2ncnc(N3CCCCC3C)c2c1C (centres undefined) |  | active: 25.1 µM
5 | CCc1c(C)sc(NC(=O)c2ccco2)c1C(=O)N1CCOCC1 | inactive: -56% | 
6 | CCCCCCN(CCCCCC)C(=O)Cc1c(-c2ccc(F)cc2)[nH]c2ccccc12 | inactive: 15.7% | 
7 | CCOC(=O)c1sc(C)c2c1NC(C)(c1cccs1)NC2=O (centres undefined) | inactive: 3.37% | 
8 | COC(=O)[C@H]1[C@H]2C[C@@H]3c4[nH]c5cc(OC)ccc5c4CCN3C[C@H]2C[C@@H](OC(=O)c2cc(OC)c(OC)c(OC)c2)[C@@H]1OC | inactive: -59.1% | 
9 | CC(C)C[C@H](NC(=O)[C@@H](O)[C@H](N)Cc1ccccc1)C(=O)O | inactive: 10.4% | 
10 | CCCC1(c2ccccc2)NC(=O)N(CC(=O)c2[nH]c(C)c(C(=O)OCC)c2C)C1=O (centres undefined) | inactive: -36.9% | 
11 | CCOC(=O)c1ccc2ncc(C(=O)OCC)c(NCc3ccco3)c2c1 |  | active: 25.1 µM
12 | CO[C@H]1C=CO[C@]2(C)Oc3c(C)c(O)c4c(O)c(c5c(c4c3C2=O)NC2(CCN(CC(C)C)CC2)N=5)=NC(=O)C(C)=CC=C[C@@H](C)[C@@H](O)[C@@H](C)[C@@H](O)[C@@H](C)[C@@H](OC(C)=O)[C@@H]1C | inactive: -23.7% [at 25.6 µM] | 
13 | COC(=O)[C@@]1(Cc2ccc(OC)cc2)[C@H]2c3cc(C(=O)N(C)C)n(Cc4ccccc4)c3C[C@H]2CN1C(=O)c1ccccc1 |  | active: 12.6 µM
14 | Cc1cc(C)cc(OCC(O)CN2C(=O)NC(C)(C)C2=O)c1 (centres undefined) | inactive: -51.9% | 
15 | CN(C)C(=O)CSc1nnc([C@H](Cc2c[nH]c3ccccc23)NC(=O)OC(C)(C)C)o1 | inactive: 1.82% | 
16 | CS(=O)(=O)Nc1ccc([N+](=O)[O-])cc1Oc1ccccc1 | inactive: -5.11% | 
17 | CCCC(=O)N(c1ccc(OCC)cc1)C1C=CS(=O)(=O)C1 (centres undefined) |  | active: 3.16 µM
18 | OCc1ccccc1 | inactive: -14.9% | 
19 | CCOc1ccc(NC(C)c2cc(Cl)ccc2O)cc1 (centres undefined) | inactive: -32% | 
20 | CCC(Sc1nnc(C)s1)C(=O)Nc1nccs1 (centres undefined) |  | active: 25.1 µM
21 | Cn1c(=O)n(C)c2cc(S(=O)(=O)N3CCCc4ccccc43)ccc21 | inactive: -2.28% | 
22 | CCCCOCCO |  | inactive
23 | CC(C)CN(C(=O)COC(=O)Cn1cnc2ccccc2c1=O)C1CCS(=O)(=O)C1 (centres undefined) | inactive: 9.24% | 
24 | CN(C)CCC=C1c2ccccc2C=Cc2ccccc21 |  | inactive
25 | O=C(CCCn1c(=S)[nH]c2ccsc2c1=O)NCc1ccco1 | inactive: -78.5% | 

Row | SMILES | activation | Potency
26 | Clc1ccc(CSc2nnc(-c3ccncc3)o2)c(Cl)c1 |  | active: 20 µM
27 | Cc1ccc(C(=O)CSc2nc(C)cc(SCc3nnc(-c4ccccc4)o3)n2)cc1 |  | active: 7.94 µM
28 | c1ccc(Oc2ccccc2)cc1 | inactive: -32.5% | 
29 | C=C(C)C1CC=C(C)C(O)C1 (centres undefined) | inactive: 15.9% | 
30 | O=S(=O)(c1ccc2c(c1)OCCO2)N(Cc1ccc(F)cc1)Cc1nnc(-c2cccs2)o1 |  | active: 2 µM
31 | CCC(C)N(C(=O)Cn1nnc2ccccc21)C(C(=O)NCc1ccco1)c1cccc(OC)c1 (centres undefined) |  | active: 15.8 µM
32 | CC(=O)SC(C)CC(=O)Nc1ccccc1 (centres undefined) | inactive: -45.5% | 
33 | CCC(C)(C(=O)NC1CCCCC1)N(Cc1ccco1)C(=O)c1ccc2c(c1)OCO2 (centres undefined) |  | active: 7.94 µM
34 | CCc1ccccc1OC[C@@H](O)CN[C@H]1CCCc2ccccc21 |  | active: 39.8 µM
35 | COc1cccc(NC(=O)c2ccccc2-c2nc(-c3ccccc3)no2)c1 |  | active: 10 µM
36 | Cc1cccc(-c2noc(CN(C(=O)c3ccc4c(c3)OCO4)C(C)C)n2)c1 |  | active: 31.6 µM
37 | CN(Cc1cnc2nc(N)nc(N)c2n1)c1ccc(C(=O)N[C@H](CCC(=O)O)C(=O)O)cc1 |  | inactive
38 | CC(C)NC[C@H](O)c1ccc2ccccc2c1 | inactive: 23.6% | 
39 | CN(C1=NC(=O)C(CC(=O)Nc2ccc(Br)cc2)S1)c1ccc(O)cc1 (centres undefined) | inactive: -52.7% | 
40 | O=C(CNCC1CCCO1)N1CCCc2ccccc21 (centres undefined) | inactive: -1.9% | 
41 | COc1cc(C(=O)OCCCN2CCCN(CCCOC(=O)c3cc(OC)c(OC)c(OC)c3)CC2)cc(OC)c1OC |  | inactive
42 | CN(C)c1ccc(-c2nc(Nc3ccncc3)c3ccccc3n2)cc1 | inactive: -48.6% | 
43 | Oc1cc(O)c2c(c1)O[C@H](c1ccc(O)c(O)c1)[C@@H](O)C2 | inactive: 1.87% | 
44 | CCN(CC)CCOC(=O)C1(C2CCCCC2)CCCCC1 | inactive: 13.6% [at 25.6 µM] | 
45 | COc1ccc(Oc2cn[nH]c2-c2ccc(O)cc2O)cc1 |  | active: 2 µM
46 | CCSc1nnc(-c2cccc(S(=O)(=O)N(C)C)c2)n1-c1cc(OC)ccc1OC |  | active: 5.01 µM
47 | CCN(C(=O)c1cc2cc3ccc(C)cc3nc2o1)c1ccc(OC)cc1 |  | active: 39.8 µM
48 | Oc1cc2c(cc1O)[C@H]1c3ccc(O)c(O)c3OC[C@@]1(O)C2 | inactive: -3.43% | 
49 | CCOc1ccccc1C(=O)Nc1cc(OC)ccc1OC |  | active: 25.1 µM
